# PubChem BioAssay (NCATS)
# Values joined by “and” are separate entries in the source; they are usually repeats but may differ in a detail not shown here. Equal values may be shown once. The inconclusive results got no clear call from the source; some entries with a clear call stand among them for comparison. For part of these data: Potencies beside an inconclusive call are fits to weak or partial responses and may not hold up. Active and inactive are the calls of the source. Unless noted, calls follow the shape of the dose curve; as a rule, active = well fitted curve in the direction sought with a large enough effect; inconclusive = small, poorly fitted or top-dose-only effect, or another doubt; inactive = no such curve, though single readings can be large; an effect the other way counts as inactive or inconclusive.
# Experiments:
# [1] = qHTS to identify inhibitors of the type 1 interferon - major histocompatibility complex class I in skeletal muscle: primary screen against the NCATS Mechanism Interrogation Plate v5.0 (MIPE) Libary (AID 1347411); details: iHSKM cells + IFN-b, HiBiT-tagged MHC-I luminescence, 24 h; activity change, negative = inhibition: at 45.8 µM (top of the series); also: nearly all actives have a fitted effect of over 65% in size; also: potency is read from the fitted curve at half-maximal effect;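 as to activity change, negative = inhibition: plate controls were vehicle for no effect and reference inhibitor for full effect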
# Procedure, shortened: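 Luminescence from CRISPR HiBit-tagged endogenous HLA-B in human myoblasts reported MHC class I level after 24 h of IFN-beta (4 ng/ml) plus compound. Compounds ran as 11-point 1:3 series, top 46 uM final.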
# JEG-3 = experiment: Primary qHTS to identify gynecologic anti-cancer compounds using libraries of approved drugs and bioactive compounds (AID 1345084); details: Gynecologic cancer cell panel viability, ATPlite luminescence, 48 h; series mostly up to 57.5 µM; also: nearly all actives have a fitted effect of over 55% in size; also: potency is read from the fitted curve at half-maximal effect
# Procedure, shortened: (§1)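 ATP-based viability (ATPlite), 1,000 cells/well, 16 h pre-incubation, 48 h compound at 37 C, 5% CO2, 15 min RT before read.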
# [2] = qHTS of pediatric cancer cell lines to identify multiple opportunities for drug repurposing: Primary screen for SK-N-MC cells (AID 1347093); details: SK-N-MC viability, CellTiter-Glo luminescence, 48 h; activity change, negative = cytotoxic: at 46 µM (top of the series);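 also: plate controls were DMSO neutral control for no effect and bortezomib for full effect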
# Procedure, shortened: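 Metabolically active cells were quantified by ATP-dependent luminescence (CellTiter-Glo, 15 min at room temperature) following 48 h treatment. Cells had been plated at 500-1,000 per well and settled for 5 h beforehand.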
# [3] = qHTS of pediatric cancer cell lines to identify multiple opportunities for drug repurposing: Primary screen for BT-12 cells (AID 1347101); also: potency is read from the fitted curve at half-maximal effect; nearly all actives have a fitted effect of over 25% in size
# Procedure, shortened: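 Cells (500-1,000/well) rested 5 h, then received compounds for 48 h; metabolically active cells were measured by CellTiter-Glo luminescence. Final concentrations spanned up to 46 µM (MIPE, 11-point) or 0.59 nM-46 µM (NPC, 8-point) in primary screens, 11-point in follow-ups.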
# [4] = test system: Zika virus NS2B-NS3 protease (linked construct); experiment: Primary screen NINDS Rhodamine qHTS for Zika virus inhibitors (AID 1347160); also: nearly all actives have a fitted effect of over 55% in size; also: potency is read from the fitted curve at half-maximal effect; as to activity change, negative = inhibition: % is scaled to controls: 0 for no effect and ±100 for the full control effect
# Procedure, shortened: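 Aprotinin served as in-plate control. Conditions: 25 nM linked NS2B-NS3, pH 8.0 Tris buffer, titrated compounds, 15 min preincubation and 15 min reaction with 1.5 microM Rhod110 substrate at room temperature.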
# [5] = molecular target: Luciferin 4-monooxygenase (Photinus pyralis) (UniProt P08659); experiment: Primary firefly luciferase (FLuc) qHTS assay for identification of artifact compounds. (AID 1845220); also: potency is read from the fitted curve at half-maximal effect; nearly all actives have a fitted effect of over 60% in size
# Procedure, shortened: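 Reaction readout was CCD-imaged luminescence, taken 5 min after adding 10 nM purified firefly enzyme to compound-treated wells holding 10 uM luciferin and ATP in pH 7.6 buffer.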
# [6] = qHTS of pediatric cancer cell lines to identify multiple opportunities for drug repurposing: Primary screen for DAOY cells (AID 1347090); details: DAOY medulloblastoma viability, CellTiter-Glo luminescence, 48 h; activity change, negative = cytotoxic: at 46 µM (top of the series);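 also: plate controls were DMSO for no effect and bortezomib for full effect; nearly all actives have a fitted effect of over 55% in size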
# Procedure, shortened: (§2)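 Eight- or eleven-point concentration series, 48 h treatment at 37 degrees C in growth media; readout CellTiter-Glo luminescence. Potency and efficacy were taken from the concentration-response curves.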
# [7] = qHTS of pediatric cancer cell lines to identify multiple opportunities for drug repurposing: Primary screen for NB-EBc1 cells (AID 1347095);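 also: plate controls were DMSO neutral control for no effect and bortezomib for full effect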
# Procedure, shortened: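 500-1,000 cells/well; 5 h pre-incubation 37 °C/5% CO2; compound pinned; 48 h; CellTiter-Glo, 15 min RT; luminescence. MIPE 11-pt from 0.78 nM, NPC 8-pt from 0.59 nM final. Bortezomib 2.3 µM final as positive control.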
# [8] = molecular target: Phospholipid hydroperoxide glutathione peroxidase GPX4 (Homo sapiens) (UniProt P36969); experiment: Primary qHTS Assay for Inhibitors of Recombinant Selenoprotein Glutathione Peroxidase 4 (GPX4) (AID 1845192); also: nearly all actives have a fitted effect of over 65% in size; also: potency is read from the fitted curve at half-maximal effect; as to activity change, negative = inhibition: % is scaled to controls: 0 for no effect and ±100 for the full control effect
# Procedure, shortened: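 qHTS, GR-coupled: GPX4 200 nM + cpd 30 min RT → GSH 1 mM, NADPH 0.5 mM, GR 100 nM → CHP 0.5 mM start; fluor 340/450 at t0 and t15 min; no-enzyme wells as control.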
# [9] = qHTS of pediatric cancer cell lines to identify multiple opportunities for drug repurposing: Primary screen for SJ-GBM2 cells (AID 1347091);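 also: plate controls were DMSO neutral control for no effect and bortezomib for full effect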
# Procedure, shortened: as §2
# [10] = molecular target: Calcium and integrin-binding protein 1 (Homo sapiens) (UniProt Q99828); experiment: Primary qHTS for Identification of Calcium Integrin Binding Protein 1 (CIB1) Competitor (AID 1508620); also: potency is read from the fitted curve at half-maximal effect
# Procedure, shortened: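 Fluorescence polarization competition: CIB1-GST (1 uM final) preincubated with compound 15 min at room temperature, then FITC-labeled alphaIIb peptide (100 nM final) added for another 15 min. Polarization read at Ex 480/Em 540.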
# [11] = molecular target: Cytochrome P450 2C9 (Homo sapiens) (UniProt P11712); experiment: Cytochrome P450 family 2 subfamily C member 9 (CYP2C9) small molecule antagonists: luciferase biochemical (cell-free) qHTS assay (AID 1645842; active = well fitted curve in the direction sought with a large enough effect in the repeat runs; inconclusive = weak or mixed curves; inactive = no such curve, though single readings can be large; an effect the other way counts as inactive or inconclusive; also: nearly all actives have a fitted effect of over 55% in size; also: potency is read from the fitted curve at half-maximal effect; as to activity change, negative = inhibition: % is scaled to controls: 0 for no effect and ±100 for the full control effect)
# Procedure, shortened: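 P450-Glo CYP2C9 system: proluciferin substrate with enzyme in mix containing 0.4% BSA, 10 min at room temperature, then NADPH regeneration solution added and incubated 1 h at 37C. Detection reagent stopped reaction; luminescence read after 20 min as RLU.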
# [12] = molecular target: Cytochrome P450 3A4 (Homo sapiens) (UniProt P08684); experiment: Cytochrome P450 family 3 subfamily A member 4 (CYP3A4) small molecule antagonists: luciferase qHTS assay (AID 1645841; active = well fitted curve in the direction sought with a large enough effect in the repeat runs; inconclusive = weak or mixed curves; inactive = no such curve, though single readings can be large; an effect the other way counts as inactive or inconclusive; also: nearly all actives have a fitted effect of over 45% in size; also: potency is read from the fitted curve at half-maximal effect)
# Procedure, shortened: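 P450-Glo CYP3A4 enzyme with proluciferin substrate was preincubated with DMSO-dissolved compounds for 10 min at room temperature. NADPH regeneration solution started a 1 h reaction. Detection reagent stopped it, and luminescence was read after 20 min.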
# [13] = Primary redox qHTS assay for identification of artifact compounds. (AID 1845223);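 also: 0% = DMSO and 100% = reference compound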
# Procedure, shortened: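 Redox-cycling detection via DTT (250 uM final) oxidation coupled to Amplex Red (25 uM)/HRP (250 mU/mL) in HBSS. 15 min preincubation plus 30 min after DTT, room temperature. Ex/Em 525/598 nm; 4-parameter Hill fit against DMSO and 10 uM DA3003.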
# GB4 = experiment: qHTS profiling for inhibitors of Plasmodium falciparum proliferation (AID 504749); also: potency is read from the fitted curve at half-maximal effect; nearly all actives have a fitted effect of over 60% in size; details: P. falciparum in erythrocytes, SYBR Green DNA, 72 h; series mostly up to 28.7 µM
# Procedure, shortened: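 Quantitative HTS: compounds pinned into medium, infected erythrocytes added (0.3% parasitemia, 2.5% hematocrit), 72 h culture at 37 C under 5% CO2. Saponin/Triton lysis with SYBR Green I, overnight RT, then fluorescence read.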
# [14] = Primary qHTS for small molecule stabilizers of the endoplasmic reticulum resident proteome: Secreted ER Calcium Modulated Protein (SERCaMP) assay (AID 1508630); details: SH-SY5Y GLuc-SERCaMP (Gaussia luciferase released on ER calcium loss) secretion, thapsigargin, luminescence; activity change, negative = inhibition: at 38.4 µM (top of the series); also: potency is read from the fitted curve at half-maximal effect
# Procedure, shortened: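 The SH-SY5Y reporter protocol was run at 3 concentrations up to 38.3 uM (primary) or 11 concentrations (follow-up): 16 h compound, 100 nM thapsigargin for 4 h, then extracellular luciferase luminescence.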
# [15] = Drug repurposing screens with cells derived from glioblastoma tumor samples (AID 1345199); details: GBM patient neurospheres viability, ATP luminescence, 48 h; Potency: tumour line A unless noted; activity, negative = cell killing: at 46 µM (top of the series), tumour line A unless noted; also: potency is read from the fitted curve at half-maximal effect; nearly all actives have a fitted effect of over 40% in size
# Procedure, shortened: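 Primary testing used CD133+ neurospheres from four GBM patients, seven concentrations, 48 h exposure and ATP-based viability; confirmation added three slower-growing patient lines.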
# Es-2 = experiment: Primary qHTS to identify gynecologic anti-cancer compounds using libraries of approved drugs and bioactive compounds (AID 1345084); details: Gynecologic cancer cell panel viability, ATPlite luminescence, 48 h; series mostly up to 57.5 µM; also: nearly all actives have a fitted effect of over 55% in size; also: potency is read from the fitted curve at half-maximal effect
# Procedure, shortened: as §1
# Tags tell the direction and shape of the fitted curve.
# Sequence of UniProt P36969 (P36969 whole entry, looked up): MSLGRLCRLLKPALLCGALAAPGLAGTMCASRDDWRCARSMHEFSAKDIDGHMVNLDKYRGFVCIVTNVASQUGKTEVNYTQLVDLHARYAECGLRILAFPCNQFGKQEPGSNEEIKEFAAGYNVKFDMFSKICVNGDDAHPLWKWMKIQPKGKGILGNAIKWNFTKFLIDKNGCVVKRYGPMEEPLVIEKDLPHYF
# Sequence of UniProt P08684 (P08684 whole entry, looked up): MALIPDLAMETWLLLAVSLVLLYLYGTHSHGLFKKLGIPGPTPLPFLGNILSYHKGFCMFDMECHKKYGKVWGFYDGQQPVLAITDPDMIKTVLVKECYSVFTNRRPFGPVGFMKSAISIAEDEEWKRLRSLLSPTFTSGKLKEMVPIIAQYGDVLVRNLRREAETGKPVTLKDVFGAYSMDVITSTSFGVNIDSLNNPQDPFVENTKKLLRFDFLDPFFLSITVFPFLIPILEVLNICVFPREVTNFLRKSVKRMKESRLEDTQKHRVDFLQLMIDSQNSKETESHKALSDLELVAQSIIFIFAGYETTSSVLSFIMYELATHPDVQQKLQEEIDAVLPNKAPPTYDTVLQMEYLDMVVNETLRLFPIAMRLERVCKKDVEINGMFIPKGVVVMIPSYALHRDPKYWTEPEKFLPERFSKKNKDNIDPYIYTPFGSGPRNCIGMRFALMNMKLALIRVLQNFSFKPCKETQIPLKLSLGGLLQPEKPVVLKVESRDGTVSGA
# Sequence of UniProt P11712 (P11712 whole entry, looked up): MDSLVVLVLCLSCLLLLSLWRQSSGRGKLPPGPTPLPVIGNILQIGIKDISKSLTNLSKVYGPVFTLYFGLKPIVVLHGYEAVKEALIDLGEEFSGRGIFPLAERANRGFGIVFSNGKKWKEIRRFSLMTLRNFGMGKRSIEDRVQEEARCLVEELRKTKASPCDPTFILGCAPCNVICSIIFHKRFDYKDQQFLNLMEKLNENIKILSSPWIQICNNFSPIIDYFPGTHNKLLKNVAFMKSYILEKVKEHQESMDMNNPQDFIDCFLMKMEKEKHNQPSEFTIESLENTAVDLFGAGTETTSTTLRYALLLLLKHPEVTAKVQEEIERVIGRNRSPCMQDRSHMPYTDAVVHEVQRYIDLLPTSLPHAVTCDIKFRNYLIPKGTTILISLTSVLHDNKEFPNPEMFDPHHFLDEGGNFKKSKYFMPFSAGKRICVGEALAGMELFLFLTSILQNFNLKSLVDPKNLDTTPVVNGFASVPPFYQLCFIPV
# Sequence of UniProt Q99828 (Q99828 whole entry, looked up): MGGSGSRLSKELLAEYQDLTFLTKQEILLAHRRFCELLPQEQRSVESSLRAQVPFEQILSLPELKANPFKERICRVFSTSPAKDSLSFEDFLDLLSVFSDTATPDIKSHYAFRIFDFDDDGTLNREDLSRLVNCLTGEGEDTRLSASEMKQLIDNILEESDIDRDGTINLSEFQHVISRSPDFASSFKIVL
structure (smiles),measurement,setting,value
Cc1[nH]nc(C(F)(F)F)c1Cc1sc2c(c1C(=O)N1C[C@](C)(O)CO1)c(=O)n(C)c(=O)n2C(C)C,Potency,[1],inactive
CC1CC2OC3(OC2C(C)(C)O)C1C1(C)CCC24CC25CCC(O[C@@H]2OC[C@@H](O)[C@H](O)[C@H]2O)C(C)(C)C5CC=C4C1(C)C3O (stereo partly specified),Potency,JEG-3,"inconclusive: 8.91 µM [rising, partial curve]"
C[C@]12CC[C@H]3[C@@H](CCC4=CC(=O)CC[C@@]43C)[C@@H]1CC[C@@H]2C(=O)CO,Potency,[2],inactive
same,Potency,[3],"inconclusive: 17.4 µM [cytotoxic, partial curve, poor fit]"
COC(=O)Cn1nc(-c2cccc(OC)c2)c2ccccc21,Potency,JEG-3,inactive
COc1c(-c2ccc(O)cc2)cc(OC)c2c1oc1cc(O)c(OC3OC(CO)C(O)C3O)cc12 (stereo unspecified),Potency,[4],"inconclusive: 11.2 µM [inhibitor, single point]"
same,Potency,[5],"inconclusive: 18.5 µM [inhibitor, partial curve, poor fit]"
C=CCSCC1Nc2cc(Cl)c(S(N)(=O)=O)cc2S(=O)(=O)N1 (stereo unspecified),Potency,[6],inactive
same,Potency,[7],inactive
COc1cc(F)c(C(C)C)cc1-c1ccc(C(F)(F)F)cc1CN1C(=O)OC(c2cc(C(F)(F)F)cc(C(F)(F)F)c2)C1C (stereo unspecified),Potency,[8],inactive
CCN[C@@H]1C[C@H](N)[C@@H](OC2OC(CN)=CCC2N)[C@H](O)[C@H]1O[C@H]1OC[C@](C)(O)[C@H](NC)[C@H]1O (stereo partly specified),"activity change, negative = cytotoxic",[6],inactive: 1.01% [at 0.597 µM]
same,"activity change, negative = cytotoxic",[9],inactive: 1.88% [at 0.597 µM]
COc1ccc2nc3n[nH]c(C)c3c(NCCOCCO)c2c1,Potency,[1],"inconclusive: 4.15 µM [inhibitor, partial curve]"
same,Potency,[10],active: 50.1 µM
same,Potency,[11],"inconclusive: 23.9 µM [inhibitor, single point]"
same,Potency,[8],"inconclusive: 11.4 µM [inhibitor, partial curve] and inconclusive: 22.7 µM [inhibitor, single point]"
CCOc1cn(-c2ccc(F)cc2C)nc1C(=O)Nc1ccc(Oc2ccnc3cc(OC)c(OC)cc23)c(F)c1,Potency,[12],inactive
COc1ccc(C2(O)c3ccccc3NC(=O)C2O)cc1 (stereo unspecified),Potency,JEG-3,inactive
CC1(C)CC[C@]2(C(=O)O)[C@H](O)C[C@]3(C)C(=CCC4[C@@]5(C)CC[C@H](O[C@@H]6O[C@H](CO[C@@H]7OC[C@H](O)[C@H](O)[C@H]7O[C@@H]7OC[C@H](O)[C@H](O)[C@H]7O)[C@@H](O)[C@H](O)[C@H]6O)C(C)(C)C5CC[C@]43C)[C@@H]2C1 (stereo partly specified),redox activity (% of DA3003),[13],inactive: 16.3% [at 11.5 µM]
Cc1cccc(C)c1NC(=O)CN1CCCCCC1,Potency,[2],inactive
same,Potency,GB4,"inconclusive: 5.36 µM [inhibitor, partial curve]"
COc1cc(NS(=O)(=O)c2ccc(N)cc2)ncn1,Potency,[2],inactive
same,Potency,[14],"inconclusive: 31.6 µM [inhibitor, single point]"
same,Potency,[15],"inconclusive: 10 µM [inhibitor, partial curve, poor fit]"
CC(C)(Cc1ccccc1)NCC(O)c1ccc(O)c(NS(C)(=O)=O)c1 (stereo unspecified),Potency,[12],"inconclusive: 37.9 µM [falling, partial curve, poor fit]"
same,Potency,[11],"inconclusive: 37.9 µM [inhibitor, single point]"
CC1(C)Oc2ccc(C#N)cc2[C@@H](N2CCCC2=O)[C@@H]1O,Potency,[9],inactive
CCN[C@@H]1C[C@H](N)[C@@H](O[C@H]2OC(CN)=CC[C@H]2N)[C@H](O)[C@H]1O[C@H]1OC[C@](C)(O)[C@H](NC)[C@H]1O,Potency,JEG-3,"inconclusive: 25.1 µM [cytotoxic, single point]"
O=C(Nc1ccccc1C(=O)NC1CCCCNC1=O)c1cc2ccccc2s1 (stereo unspecified),Potency,[4],inactive
C[C@@H]1O[C@@H](OC(=O)Cc2ccccc2)[C@H](O)[C@H](O)[C@H]1O,Potency,[13],inactive
COCCc1ccc(OCC2CO2)cc1 (stereo unspecified),Potency,[11],inactive
Cc1c(C(=O)N2CCOc3ccc(-c4ccc(N)nc4)cc3C2)ccc(S(C)(=O)=O)c1F,Potency,[1],"inconclusive: 2.62 µM [inhibitor, full curve]"
same,Potency,Es-2,"inconclusive: 14.1 µM [cytotoxic, partial curve]"
N[C@@H](COP(=O)(O)O)C(=O)O,Potency,[9],inactive
same,Potency,[12],inactive
same,Potency,[15],"inconclusive: 35.5 µM [inhibitor, partial curve, poor fit]"
